Over roughly 33,000 sequences, “E-score (-0.5 to 0.5)” has its median near -0.016; the highest 2% begin near 0.32. This is one part of the list.
The sequences below were run against T1, Stp1 (UniProt B3LFK1) (assay: PBM E-score (8-mer binding enrichment) (E-score (-0.5 to 0.5)); higher = stronger / more preferred TF binding; most listed sequences are background and not binding sites). Conditions: protein concentration: 200 nM; construct: GST-full length.
T1 sequence: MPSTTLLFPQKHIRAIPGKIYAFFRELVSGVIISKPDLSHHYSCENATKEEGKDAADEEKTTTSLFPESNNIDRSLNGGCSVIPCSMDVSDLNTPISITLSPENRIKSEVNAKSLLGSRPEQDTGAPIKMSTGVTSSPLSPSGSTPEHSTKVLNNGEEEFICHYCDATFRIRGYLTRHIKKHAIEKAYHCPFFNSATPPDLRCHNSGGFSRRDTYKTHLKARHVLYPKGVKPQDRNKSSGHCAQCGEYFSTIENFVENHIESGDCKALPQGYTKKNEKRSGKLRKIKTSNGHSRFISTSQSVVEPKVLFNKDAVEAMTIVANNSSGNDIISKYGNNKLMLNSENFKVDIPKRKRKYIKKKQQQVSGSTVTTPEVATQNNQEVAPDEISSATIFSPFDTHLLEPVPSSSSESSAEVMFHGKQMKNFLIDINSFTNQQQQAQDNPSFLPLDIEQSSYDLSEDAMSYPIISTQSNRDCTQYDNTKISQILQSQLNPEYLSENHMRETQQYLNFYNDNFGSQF
Description: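 Universal 'all 10-mer' protein binding microarrays (Agilent AMADID 015681) probed with GST-tagged S. cerevisiae TFs (full-length or DBD) made by in vitro transcription/translation (PURExpress), about 100-200 nM. Bound TF was detected with fluorescent anti-GST. Each ungapped 8-mer (which stands for itself and its reverse complement) is scored by the PBM enrichment score (E-score), a modified Wilcoxon-Mann-Whitney statistic from -0.5 to +0.5, computed with the Universal PBM Analysis Suite. Scale: above 0.35 generally sequence-specific binding.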
CGGGGTCA was tested, and the “PBM E-score” value was -0.114.
With CCTGGGAC the “PBM E-score” value was -0.366.
TGGCGCCA was tested, and the “PBM E-score” value was 0.26.
For ACTGGGTC, the “PBM E-score” value was -0.306.
ATGGTATA was tested, and the “PBM E-score” value was 0.0796.
With GGAAAGAA the “PBM E-score” value was 0.0492.
In the case of TATCCCCA, the “PBM E-score” value is reported as -0.189.
For GAATAGTC, the “PBM E-score” value was -0.205.
For GACTCGGC, the “PBM E-score” value was 0.0727.
For AGTACGCG, the “PBM E-score” value was 0.0629.
GCGTAATA was tested, and the “PBM E-score” value was 0.186.
In the case of CTTCCGGA, the “PBM E-score” value is reported as -0.118.
In the case of GTTCAATA, the “PBM E-score” value is reported as 0.0887.
In the case of CTTTCTTA, the “PBM E-score” value is reported as -0.00878.
AAGATCCA was tested, and the “PBM E-score” value was 0.0992.
With GTAAACAA the “PBM E-score” value was 0.213.
With CGCCATCC the “PBM E-score” value was 0.0995.
With GCTATACA the “PBM E-score” value was -0.0217.
With ACCATAGT the “PBM E-score” value was -0.0656.
With GTGTCTTA the “PBM E-score” value was -0.0267.
With ATGGGAAA the “PBM E-score” value was -0.112.
For CAAAAGTC, the “PBM E-score” value was 0.0582.
In the case of ATAGCTCC, the “PBM E-score” value is reported as -0.288.
For CACTCCAA, the “PBM E-score” value was -0.0445.
For ATAGCCCG, the “PBM E-score” value was -0.152.
With GCAAAAGA the “PBM E-score” value was 0.0536.
For ACGATTAG, the “PBM E-score” value was 0.0216.
In the case of GTGTTTAA, the “PBM E-score” value is reported as 0.092.
For ATACGCGG, the “PBM E-score” value was 0.263.
AGGGACTG was tested, and the “PBM E-score” value was -0.302.
GAAATCCA was tested, and the “PBM E-score” value was 0.0612.
For CTGCCGTC, the “PBM E-score” value was 0.299.
With CAGCTGGG the “PBM E-score” value was -0.265.
In the case of GGTTAATA, the “PBM E-score” value is reported as 0.224.
In the case of CTTCGCTC, the “PBM E-score” value is reported as 0.155.
With CTGTTGCC the “PBM E-score” value was 0.0784.
In the case of GACTTTTA, the “PBM E-score” value is reported as -0.244.
For ATAGACCG, the “PBM E-score” value was -0.123.
GGGTGAAC was tested, and the “PBM E-score” value was 0.033.
With CTGTTCGA the “PBM E-score” value was -0.209.
CTAACGAA was tested, and the “PBM E-score” value was 0.13.
For ATTCCTCC, the “PBM E-score” value was -0.157.
For AAGTGATT, the “PBM E-score” value was 0.0164.
In the case of ACGTTCAG, the “PBM E-score” value is reported as -0.147.
For GCGGTACA, the “PBM E-score” value was 0.1.
With ATCCAGTC the “PBM E-score” value was -0.0342.
For AAGCGGTC, the “PBM E-score” value was -0.149.
With AGCACACT the “PBM E-score” value was -0.0769.
For CGTGGATA, the “PBM E-score” value was -0.0288.
With AACGAGTA the “PBM E-score” value was 0.034.
For GCATAGCC, the “PBM E-score” value was -0.131.
For ATCAAACC, the “PBM E-score” value was 0.00742.
AGACTACC was tested, and the “PBM E-score” value was -0.216.
In the case of GATGGTAC, the “PBM E-score” value is reported as -0.00639.
With ACAACCCC the “PBM E-score” value was -0.242.
In the case of CAATTGTA, the “PBM E-score” value is reported as 0.0616.
For ATCAGATC, the “PBM E-score” value was -0.0902.
With AATACAGG the “PBM E-score” value was 0.0178.
GCTGCTAA was tested, and the “PBM E-score” value was -0.00243.
With CGTGCAAC the “PBM E-score” value was 0.138.
With GTCTTAGA the “PBM E-score” value was -0.022.
For ATAACGGA, the “PBM E-score” value was 0.0775.
For AGGCTTAT, the “PBM E-score” value was -0.108.
For ATAGCCTA, the “PBM E-score” value was -0.144.
With CCAGTCCG the “PBM E-score” value was -0.172.
In the case of CCATTATC, the “PBM E-score” value is reported as 0.199.
GGGTTACC was tested, and the “PBM E-score” value was -0.0716.
With AACAGATC the “PBM E-score” value was 0.109.
ACGCGCCC was tested, and the “PBM E-score” value was 0.289.
For GTTGGCTA, the “PBM E-score” value was -0.0564.
In the case of CATCTGCC, the “PBM E-score” value is reported as -0.132.
With CTCCGCAC the “PBM E-score” value was 0.119.
GCCCTCAC was tested, and the “PBM E-score” value was -0.251.
TAATCAGA was tested, and the “PBM E-score” value was 0.104.
For CATTTCAC, the “PBM E-score” value was -0.0457.
AGATTCCC was tested, and the “PBM E-score” value was -0.18.
For CTATAACA, the “PBM E-score” value was 0.0642.
With ACGATGGG the “PBM E-score” value was -0.235.
CCCCTCCA was tested, and the “PBM E-score” value was -0.239.
CGCTCTCC was tested, and the “PBM E-score” value was -0.216.
With ACATGAAT the “PBM E-score” value was 0.0303.
For CCTGGGGC, the “PBM E-score” value was -0.253.
For AACTGCTC, the “PBM E-score” value was -0.0803.
GGCGCGCC was tested, and the “PBM E-score” value was 0.423.
ACTACAAT was tested, and the “PBM E-score” value was 0.156.
In the case of AGAGATCC, the “PBM E-score” value is reported as -0.184.
